Measured values reported in the supplement of paper PMC4967469.
IC50 is the fitted dose that halves viability relative to control wells, and lower means more sensitive; a fit beyond the top or the lowest dose is shown as a bound at that dose. The AUC spans the tested range (256-fold, ending at the top dose) of the same fit; values near 1 show little effect. Any top dose called inferred was derived from the fitted curves, not read from the paper. For part of these data: Drugs with an entry number were screened twice under separate entries, and the two screens often disagree.

How the values were obtained:
AICAR = compound: NC(=O)c1ncn([C@@H]2O[C@H](CO)[C@@H](O)[C@H]2O)c1N [AICAR]; assay: Viability of human cancer cell lines after 72 h of drug (GDSC screen); conditions: top dose 2000 µM; top dose inferred
Protocol: (§1)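 Human cancer cell lines in 384-well plates, medium with 10% serum, drug for 72 h over a 256-fold dose range (nine 2-fold or five 4-fold steps up to the top dose). Adherent lines were fixed and stained with the nucleic acid dye Syto60, suspension lines read with resazurin; signal relative to control wells, capped at 0 and 100%. One two-parameter sigmoid per drug and line, fitted in a mixed model over all curves with the slope shared within a line.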

AKT inhibitor VIII = compound: O=c1[nH]c2ccccc2n1C1CCN(Cc2ccc(-c3[nH]c4cc5ncnc5cc4nc3-c3ccccc3)cc2)CC1 [AKT inhibitor VIII]; assay: as above; conditions: top dose inferred
Protocol: as §1

[1] = top dose 2.56 µM, screen: GDSC drug entry 171
[2] = top dose 10.24 µM, screen: GDSC drug entry 228

| Cell Line | AUC (AICAR) | IC50 (AICAR) | AUC (AKT inhibitor VIII; [1]) | IC50 (AKT inhibitor VIII; [1]) | AUC (AKT inhibitor VIII; [2]) | IC50 (AKT inhibitor VIII; [2]) |
| --- | --- | --- | --- | --- | --- | --- |
| TK10 (kidney, adherent) | 0.946 | > 2000 µM | 0.968 | > 2.56 µM | 0.879 | > 10.2 µM |
| TK (B-cell lymphoma, suspension) | 0.711 | 464 µM | 0.953 | > 2.56 µM | 0.753 | 3.15 µM |
| TMK-1 (stomach, adherent) | 0.799 | 1020 µM | 0.899 | > 2.56 µM | 0.969 | > 10.2 µM |
| TOV-21G (ovary, adherent) | 0.845 | 1640 µM | 0.984 | > 2.56 µM | 0.824 | 6.81 µM |
| TOV-112D (ovary, adherent) | 0.983 | > 2000 µM | 0.909 | > 2.56 µM | 0.682 | 2.07 µM |
| TT2609-C02 (thyroid, adherent) | 0.827 | 1340 µM | 0.867 | > 2.56 µM | 0.938 | > 10.2 µM |
| TT (thyroid, adherent) | 0.861 | > 2000 µM | 0.848 | > 2.56 µM | 0.983 | > 10.2 µM |
| TUR (B-cell lymphoma, suspension) | 0.735 | 550 µM | 0.978 | > 2.56 µM | 0.767 | 3.52 µM |
| TYK-nu (ovary, adherent) | 0.937 | > 2000 µM | 0.948 | > 2.56 µM | 0.853 | 8.88 µM |
| U251 (glioma, adherent) | 0.895 | > 2000 µM | 0.95 | > 2.56 µM | 0.924 | > 10.2 µM |
| U-2-OS (osteosarcoma, adherent) | 0.841 | 1570 µM | 0.974 | > 2.56 µM | 0.939 | > 10.2 µM |
| U-87-MG (glioma, adherent) | 0.917 | > 2000 µM | 0.98 | > 2.56 µM | 0.926 | > 10.2 µM |
| U-118-MG (glioma, adherent) | 0.796 | 1100 µM | 0.927 | > 2.56 µM | 0.986 | > 10.2 µM |
| U-698-M (B-cell leukaemia, suspension) | 0.722 | 534 µM | 0.968 | > 2.56 µM | 0.884 | > 10.2 µM |
| UACC-62 (melanoma, adherent) | 0.864 | 1710 µM | 0.936 | > 2.56 µM | 0.97 | > 10.2 µM |
| UACC-257 (melanoma, adherent) | 0.964 | > 2000 µM | 0.965 | > 2.56 µM | 0.914 | > 10.2 µM |
| UACC-893 (breast, adherent) | 0.965 | > 2000 µM | 0.867 | > 2.56 µM | 0.664 | 2.14 µM |
| UM-UC-3 (bladder, adherent) | 0.914 | > 2000 µM | 0.975 | > 2.56 µM | 0.9 | > 10.2 µM |
| UMC-11 (lung carcinoid, adherent) | 0.885 | 1780 µM | 0.991 | > 2.56 µM | 0.896 | > 10.2 µM |
